Data reported in the supplement of paper PMC3334620.
In all, about 33,000 sequences were measured (“E-score (-0.5 to 0.5)”: median about -0.035, highest 2% from about 0.35 on). The list shows a part of the results.

target: T1, Pdr3 (UniProt P33200); assay: PBM E-score (8-mer binding enrichment) (E-score (-0.5 to 0.5)); higher = stronger / more preferred TF binding; most listed sequences are background and not binding sites; conditions: protein concentration: 200 nM; construct: GST-full length
T1 sequence: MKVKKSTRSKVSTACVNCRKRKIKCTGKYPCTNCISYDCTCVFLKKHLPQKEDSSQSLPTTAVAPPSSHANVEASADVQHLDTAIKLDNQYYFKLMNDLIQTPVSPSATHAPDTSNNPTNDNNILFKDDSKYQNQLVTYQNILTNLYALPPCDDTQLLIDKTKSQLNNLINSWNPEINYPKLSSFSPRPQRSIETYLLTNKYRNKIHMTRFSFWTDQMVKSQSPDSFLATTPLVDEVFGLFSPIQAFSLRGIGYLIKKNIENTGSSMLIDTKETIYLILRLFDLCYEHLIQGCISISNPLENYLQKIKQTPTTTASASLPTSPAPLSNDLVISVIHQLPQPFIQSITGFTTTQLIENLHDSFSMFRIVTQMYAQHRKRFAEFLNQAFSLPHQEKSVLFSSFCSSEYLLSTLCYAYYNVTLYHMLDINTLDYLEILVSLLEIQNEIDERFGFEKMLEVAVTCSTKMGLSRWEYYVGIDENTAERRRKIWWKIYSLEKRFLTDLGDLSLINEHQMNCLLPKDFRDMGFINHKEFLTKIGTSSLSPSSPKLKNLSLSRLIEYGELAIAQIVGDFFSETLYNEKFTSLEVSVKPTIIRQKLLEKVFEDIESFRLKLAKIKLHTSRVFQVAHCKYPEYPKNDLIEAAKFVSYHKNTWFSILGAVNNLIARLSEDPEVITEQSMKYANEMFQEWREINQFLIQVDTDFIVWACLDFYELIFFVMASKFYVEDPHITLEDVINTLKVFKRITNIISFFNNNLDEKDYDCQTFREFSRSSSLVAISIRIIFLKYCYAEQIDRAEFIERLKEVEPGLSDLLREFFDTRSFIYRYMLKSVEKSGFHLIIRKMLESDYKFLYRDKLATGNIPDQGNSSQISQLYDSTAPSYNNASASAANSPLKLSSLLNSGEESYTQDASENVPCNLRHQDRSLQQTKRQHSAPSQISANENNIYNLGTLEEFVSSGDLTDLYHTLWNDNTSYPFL
Summary of the method: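 The E-score, a modified Wilcoxon-Mann-Whitney statistic, was computed by the Universal PBM Analysis Suite for every ungapped eight-base word pooled with its reverse complement. Scans behind it were normalised with masliner after bound GST-tagged yeast transcription factors were detected with fluorescent anti-GST. The proteins, at about 100-200 nM, had been applied to universal all-10-mer Agilent arrays made double-stranded by primer extension.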

Point of comparison: AATGTACT, “PBM E-score” value -0.0131. Against it:
- AGAGAATC — higher, 0.0389
- CGAACACA — higher, 0.123
- TCATCGAA — lower, -0.103
- AGTATGAT — higher, 0.013
- GCCCGCGC — higher, 0.336
- AATCGTCA — lower, -0.112
- CAGGCAGG — lower, -0.165
- CACCCCTG — lower, -0.105
- ACCGTAGG — lower, -0.303
- AATCGTGA — lower, -0.158
- CGCGTTAA — higher, 0.0575
- CGGCGACG — higher, 0.272
- CCTATCCG — higher, 0.202
- AGAAAAGG — lower, -0.079
- TACATACA — higher, 0.0677
- GATGATAC — higher, 0.131
- ATAAACGG — higher, 0.208
- GCTAATAA — lower, -0.0445
- AGCAGGCT — lower, -0.259
- CCAGAACG — higher, 0.0264
- ACCGGTCA — higher, 0.147
- ATCGCCCG — higher, 0.266
- CTTACATC — lower, -0.0486
- TACCGTGA — higher, -0.00502
- GAGACGGA — higher, 0.31
- ACTGTCAA — lower, -0.151
- CTTGAGTC — lower, -0.194
- ATAGAGCG — lower, -0.0724
- ATGGTGCA — lower, -0.134
- CTGACTTA — higher, 0.0275
- ACTTCTCT — lower, -0.207
- AATTGCCC — higher, 0.107
- CTAGTCCC — lower, -0.146
- CAACAGAC — lower, -0.11
- TGACGGCA — higher, 0.135
- CAGAAAAC — lower, -0.12
- ACGGCTCG — higher, 0.222
- GTCAACAC — higher, 0.071
- CAGCTGTA — lower, -0.0308
- CACCGGTA — higher, 0.15
- TATTCGAA — lower, -0.234
- GTACGCAC — lower, -0.119
- GAGTCCAA — lower, -0.101
- CCATCGTC — higher, 0.024
- CACTGGTA — lower, -0.146
- GGTACACC — lower, -0.179
- AATAGAAT — lower, -0.107
- ATCACTAG — lower, -0.0291
- CCGCTTTA — higher, 0.0157
- GCCCGAAA — higher, 0.153
- ATAGATTA — higher, -0.0055
- CATCGCAG — lower, -0.137
- GCCGTCCA — higher, 0.159
- AGACGCTG — lower, -0.129
- GGGTGTTA — higher, 0.0693
- ATGACCGC — higher, 0.129
- CTTTCCGA — higher, 0.413
- CGCGAACA — higher, 0.194
- AATTGCTC — lower, -0.167
- ACTGATCA — lower, -0.052
- CACATTCG — lower, -0.0447
- AGTCCACG — lower, -0.0769
- ATTACCGA — higher, 0.0951
- ATCGGTGA — higher, 0.0153
- AGATTATC — lower, -0.0746
- AATGCTCA — lower, -0.0464
- AGCGAAGG — lower, -0.0572
- CCGTTATC — higher, 0.213
- CTCCCTAA — lower, -0.187
- GACGGAGC — higher, 0.213
- ACAATCAA — higher, 0.0382
- CCCTAGCG — lower, -0.297
- AACGACAA — higher, 0.0825
- AAATGATG — higher, 0.133
- GATGAGCC — lower, -0.0616
- CACGGGTC — higher, 0.25
- CGCCCCTC — higher, 0.0145
- GGATTCCA — higher, 0.191
- GACGGTAC — higher, 0.0391
- ATCACATA — higher, 0.00799
- CACCATGA — lower, -0.0152
- CAGATCTA — lower, -0.337
- ATGCAACG — higher, -0.012
- AGGTATGA — lower, -0.0996
- ACAACGTC — lower, -0.0147
- GGCTTCCA — lower, -0.084
- ATGATAAC — lower, -0.145
- GCCCGGCA — higher, 0.225
- CTCAACGA — lower, -0.1
- ATGACGCA — lower, -0.0533
- ATGGGAGG — lower, -0.0734
- CGTGGCAC — lower, -0.068
- CAGAGTCC — higher, 0.0248
- CCCAGCTC — higher, 0.0314
- GAATCCTC — higher, 0.0176
- CCCTAGCC — lower, -0.0872
- CTTTAGGC — lower, -0.296
- ACGTACAA — lower, -0.139
- ATCGTCTC — lower, -0.0382
- ACTACTAC — lower, -0.0193
- TGCATGCA — higher, -0.00836
- AGCTCGTA — lower, -0.232
- GCTTTCCC — higher, 0.124
- CTTGTACC — lower, -0.0695
- CGGGTGTA — higher, 0.217
- TACAGCGA — lower, -0.198
- AAATGGCT — lower, -0.126
- ATTCAATG — lower, -0.0444
- AAGGTTAC — lower, -0.175
- CGTTCGAC — lower, -0.241
- ACCGACTC — lower, -0.0651
- AGAAATGA — lower, -0.165
- TACCAGAA — higher, 0.0324
- ATGACCCC — higher, 0.0641
- AAGGTCGG — higher, 0.11
- AATAAGTG — lower, -0.221
- AGCTTCTA — lower, -0.137
- ACACATCT — lower, -0.0807
- CCCACTAA — lower, -0.0158
- CTATTACC — higher, 0.0609
- ACGGGTAC — higher, 0.0978
- AAGTAGAG — lower, -0.251
- GGGCTGAC — higher, 0.111
- TAAAATGA — higher, 0.12
- CCAGTGGC — lower, -0.0561
- GGGGGGAC — lower, -0.307
- CCGCTGAG — higher, 0.16
- ACTTGGAC — lower, -0.026
- ACCTTCTC — higher, 0.0469
- ACCTGCCG — lower, -0.0199
- CAGTGATG — lower, -0.265
- AAAAAATC — higher, 0.00966
- AGAACACA — higher, 0.00421
- AGGTTAGC — lower, -0.28
- CTATGTGA — lower, -0.173
- CGAACATA — higher, 0.0651
- CAGTCAAG — lower, -0.183
- GGATCCCA — higher, 0.202
- GCACCTAC — lower, -0.107
- TAGACCAA — lower, -0.077
- AGACATAG — lower, -0.0533
- TCAATGAA — lower, -0.0947
- AGCGGCTA — higher, 0.0415
- ATTGCGCC — higher, 0.0385
- AGTTCGTG — higher, 0.0727
- CGTTGCTA — lower, -0.167
- CTTAACGA — lower, -0.0976
- CGTGTTGA — lower, -0.0686
- AGCTATCG — lower, -0.0842
- CCAGCCAA — lower, -0.0622
- AGCTCACT — lower, -0.176
- GTCAGGCA — lower, -0.0365
- ACAAAGAG — lower, -0.0751
- CAGTCGGC — higher, 0.0494
- ATCTACGG — higher, 0.202
- CGGATACG — higher, 0.291
- CGCGGCAA — higher, 0.341
- CCTCGTAG — lower, -0.305
- GTACTTGA — lower, -0.168
- ACTACATG — lower, -0.0268
- ATTTCATA — higher, 0.121
- AGCCCCAG — lower, -0.0422
- AATGAGCA — lower, -0.246
- GCGAAGAC — lower, -0.0584
- CGTTCTTC — higher, 0.0181
- GAAAACCC — higher, 0.0571
- GTTCACCA — lower, -0.0164
- AATTCATC — lower, -0.0935
- GCCGAAGC — higher, 0.184
- AGGTGCCG — higher, 0.207
- CCGTAGAG — higher, -0.00528
